Measured values taken from PubChem BioAssay AID1963576 (National Center for Advancing Translational Sciences (NCATS), 2024).
About 60 (0.1%) of roughly 46,000 compounds were called active. About 3% were inconclusive and are not listed. The call rests on the fitted dose curve; in most records, active means well fitted inhibition curve with a large enough effect; inconclusive means small, poorly fitted or top-dose-only effect; inactive means no such curve, though single readings can be large or run the other way. The list shows a part of the results.

Experiment: Primary qHTS assay for Inhibitors of ovarian cancer metastasis using an organotypic tumor microenvironment (TME) model. Further: nearly all actives have a fitted effect of over 65% in size.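 On activity change, negative = inhibition: plate controls were DMSO wells for no effect and tomatine positive control wells for full effect.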
Conditions: SKOV3ip1-GFP adhesion/invasion on 3D omental model, fluorescence; series mostly up to 45.8 µM; activity change, negative = inhibition: at the top concentration
In short: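 Primary human omental fibroblast/mesothelial 3D culture pre-formed 48 h. SKOV3ip1-GFP cells added with compounds (0.36-46 umol/L), incubated 2 h RT/16 h 37 C, fixed; GFP cells quantified at 488/509 nm.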

Activity change, negative = inhibition, inactive:
Cc1nn(CC(=O)Nc2ccc(OC(F)(F)F)cc2)c(=O)c2c(C)n(-c3ccc(Cl)cc3)nc12 3.58%, COc1ccc(OCc2ccc(-c3nc(C#N)c(NC(C)c4ccccc4)o3)o2)cc1 (stereo not given) 11%, Cc1cccc(NC(=O)CSc2ncc(-c3ccccc3)[nH]2)c1C -1.25%, O=C(c1ccccc1F)N1c2ncnn2C2(CCCCC2)[C@@H]2CCCC[C@@H]21 -9.98%, CCSc1ncc(Cl)c(C(=O)Nc2nnc(CC)s2)n1 -9.77%, CCOc1ccc2oc(=O)cc(CN3CCN(C(=O)c4ccc(OC)c(OC)c4)CC3)c2c1 -21.9%, O=C(C1CCN(c2ncnc3c2nc2n3CCCCC2)CC1)N1CCN(c2ccccc2F)CC1 7.87%, CCC(C(=O)NCCc1ccccc1)n1nc(C)c2sc3ccccc3c2c1=O (stereo not given) 8.04%, Cc1c(C)n(Cc2ccc(F)cc2)c2ccc(C(=O)N3CCN(c4ccc(F)cc4)CC3)cc12 -0.526%, COc1ccc(C2=C(C)C(N3CCC(C(=O)Nc4ccccc4F)CC3)=NS2(=O)=O)cc1 -6.89%, CC(=O)N1CCCc2cc(S(=O)(=O)N3CCCC(C(=O)NCc4ccccc4Cl)C3)ccc21 (stereo not given) 0.184%, Cc1ccc(-n2c(=O)c3c4c(sc3n(Cc3cc(=O)n5cc(Cl)ccc5n3)c2=O)CCC4)cc1C -0.939%, COc1ccccc1CCNC(=O)Cc1ccc(NC(=O)N2CCSc3ncccc32)cc1 7.64%, Cc1ccc2oc(-c3ccc(Cl)c(NC(=O)Cc4ccccc4)c3)nc2c1 0.469%, COc1ccccc1CNC(=O)c1cc2c(=O)oc3ccc(C)cc3c2s1 0.132%, COc1ccc(CNC(=O)c2cc3c(=O)n(Cc4cccnc4)ccc3nc2C)cc1 -0.606%, COc1cccc(NC(=O)CSc2nc3c([nH]c4ccccc43)c(=O)n2-c2cc(C)cc(C)c2)c1 -4.41%, CC(=O)c1ccc(S(=O)(=O)N2CCn3cccc3C2c2ccccc2F)cc1 (stereo not given) -15.2%, Cc1cccc(C)c1OCc1nc2c3cnn(-c4ccccc4F)c3ncn2n1 -4.37%, CC(C)(C)c1ccc(OCc2nc3ccccc3n2CCOc2ccccc2)cc1 -5.23%, CCc1cccc(OCC(=O)Nc2ccc(S(=O)(=O)Nc3ncccn3)cc2)c1 -2.77%, CCOc1ccccc1NC(=O)C1CCN(S(=O)(=O)c2ccc3[nH]c(=O)oc3c2)CC1 17.2%, CCC(C)NC(=O)c1c(C)oc2ncn(CC(C)C)c(=O)c12 (stereo not given) 4.87%, O=C(CCS(=O)(=O)c1cc(Br)cc2c1N(C(=O)C1CC1)CC2)N1CCN(c2cccc(Cl)c2)CC1 1.67%, Cc1cc(C(=O)N2CCN(c3ccccc3)CC2)c2c(C)nn(-c3cccc(F)c3)c2n1 9.47%, CC1=C(C(=O)OC2CCCC2)C(c2c(Cl)cccc2Cl)CC(=O)N1 (stereo not given) -2.47%, Cc1cc(C)c(NC(=O)c2nc3ccccc3nc2N2CCCCC2)c(C)c1 -19%, CCC(=O)N1CCc2cc(S(=O)(=O)NC(C(=O)NCCc3ccc(OC)c(OC)c3)C(C)C)ccc21 (stereo not given) -19.2%, O=C(Cn1c(=O)n(CCc2ccccc2)c(=O)c2cccnc21)Nc1ccc(F)cc1 -1.71%, CCCCNC(=O)C1CCC(Cn2c(=O)c3sccc3n(Cc3ccccc3)c2=O)CC1 (stereo not given) 13.8%, CCc1ccc(-n2c(=O)c3c4c(sc3n(Cc3cc(=O)n5c(C)cccc5n3)c2=O)CCC4)cc1 31.1%, Cc1ccccc1CSc1nnc2[nH]c(=O)cc(-c3ccccc3)n12 -5.03%, Cc1ccc(CNC(=O)c2nn(-c3ccc(Cl)cc3)nc2CO)cc1 -2.04%, CCOC(=O)c1ccccc1NC(=O)Cn1ncc2c1-c1ccccc1OC2 1.1%, Cc1cc(C)cc(NC(=O)CSc2oc(-c3ccccc3)nc2S(=O)(=O)c2ccc(Cl)cc2)c1 -18.7%, Cc1ccc(N2C(=O)c3n[nH]c(C)c3C2c2ccc(Cl)cc2)cc1 (stereo not given) 16.4%, CC(=O)NC(CS)C(=O)O (stereo not given) -22.9%, Cc1ccc2c(c1)N(CC(=O)NCCc1ccccc1)C(=O)CO2 5.65%, CC(C)OCCCNC(=O)C(=O)Nc1c2c(nn1-c1ccccc1)CS(=O)(=O)C2 20.5%, CCc1ccccc1NS(=O)(=O)c1ccc2nc(-c3ccccc3)[nH]c2c1 -17.8%, CN(C)CC[C@H](CSc1ccccc1)Nc1ccc(S(=O)(=O)NC(=O)c2ccc(N3CCN(Cc4ccccc4-c4ccc(Cl)cc4)CC3)cc2)cc1[N+](=O)[O-] 14.6%, CCc1ccccc1NC(=O)Nc1c(C)n(C)n(-c2ccccc2)c1=O -0.475%, CCCC(=O)Nc1cc2nn(-c3ccccc3)nc2cc1C 9.4%, CCOC(=O)c1c(C)[nH]c(C)c1S(=O)(=O)N1CCC(C(=O)Nc2ccc(OCC)cc2)CC1 0.82%, CSc1ncc(C(=O)Nc2ccccc2C(F)(F)F)c(-c2ccccc2)n1 1.79%, CCCc1nc2nc(C)c(NS(=O)(=O)c3ccc(CC(C)C)cc3)c(=O)n2[nH]1 -11.6%, CCOC(=O)c1ccc(N2C(=O)c3[nH]nc(-c4ccc(C)cc4)c3C2c2cccs2)cc1 (stereo not given) -2.91%, CCCCN(CCCC)CCCNC(=O)Cn1cc2c(n1)-c1c(oc(C(=O)N3CCCC3)c1C)CC2 3.12%, CCOC(=O)c1[nH]cnc1C(=O)Nc1cccc(OC)c1 -4.94%, Cc1ccccc1CCNC(=O)c1ccc2c(c1)nc1n2CCOC1 3.12%, COC(=O)c1scc(-c2ccc(C)cc2)c1S(=O)(=O)Nc1cc(Cl)c(OC)cc1OC -6.58%, CCCn1c(CCC(=O)Nc2cc(OC)cc(OC)c2)nc2cccnc21 -8.6%, CCCCOc1ccc(Cn2c(=O)sc3ccccc32)cc1OC 0.0919%, CCCn1c(CCC(=O)Nc2cc(C(=O)OC)cc(C(=O)OC)c2)nc2cccnc21 -1.79%, COc1ccc(-n2c(=O)c3sc4ccccc4c3n(C)c2=O)cc1 -4.31%, CCSc1ncc(Cl)c(C(=O)Nc2nc3ccc(S(C)(=O)=O)cc3s2)n1 -2.82%, CCCN1CCN(c2nnc(-n3cccc3C(=O)Nc3cc(Cl)ccc3C)s2)CC1 -3.45%, CCC(=O)N1c2ccccc2CC1C(=O)NCCc1cc(OC)c(OC)c(OC)c1 (stereo not given) -4.11%, NC(=O)Cc1cccc(C(=O)c2ccccc2)c1N -13%, N#CC1(c2cccc(C(=O)Nc3cc(Oc4ccc5nc(NC(=O)C6CC6)sc5n4)ccc3F)c2Cl)CC1 16.4%, C[C@H]1COC2=C1C(=O)C(=O)c1c2ccc2c1CCCC2(C)C 11.6%, Cc1ccc(-c2nc(CS(=O)CC(=O)NCc3ccccc3Cl)c(C)o2)cc1 (stereo not given) 0.0587%, CCOC(=O)Cc1ccc(NC(=O)N2CCSc3ccccc32)cc1 -3.28%, CCOc1ccc2nc(SCC(=O)Nc3ccc(F)cc3)nc(-c3ccccc3)c2c1 -15.3%, O=c1ccc2cc(S(=O)(=O)Nc3ccc(F)c(Cl)c3)ccc2[nH]1 -0.119%, COc1ccccc1NC(=O)CSC1=Nc2ccccc2C2=NC(CCC(=O)NCc3ccco3)C(=O)N12 (stereo not given) -12.7%, CCCN(CCC)CCCNC(=O)C1CCCN(Cc2nc(-c3ccc(Cl)cc3)oc2C)C1 (stereo not given) -26.4%, O=S(=O)(c1ccc(Cl)cc1)c1nc(-c2cccs2)oc1SCc1ccc(F)cc1 3.96%, Cc1ccc(-n2ncc3c(NC(C)c4ccccc4)ncnc32)cc1 (stereo not given) 0.658%, CCc1ccc(CNC(=O)c2cc3n(n2)CCCN(Cc2ccccc2)C3=O)cc1 -7.55%, Cc1ccc(Cn2c(=O)n(CCc3ccc(Cl)cc3)c(=O)c3ccccc32)cc1 8.69%, O=C(Nc1nc2ccccc2n1CCN1CCOCC1)c1cccc([N+](=O)[O-])c1 -0.669%, COc1ccc(OC)c(NC(=O)C2Cc3ccccc3CN2S(=O)(=O)c2ccc(F)cc2)c1 (stereo not given) -4.73%, CC1=C(C(=O)Nc2ccc(Cl)cc2)C(c2ccccc2F)n2nc(SCc3cccc(Cl)c3)nc2N1 (stereo not given) 4.92%, Cc1sc2ncn(CC(=O)Nc3ccc(C(C)C)cc3)c(=O)c2c1S(=O)(=O)N1CCN(c2ncccn2)CC1 9.19%

outcome, inactive:
Cc1cccc(Nc2nc(N)nc(N)c2S(=O)(=O)c2ccccc2)c1, CCOC(=O)c1ccccc1NC(=O)CN(c1cccc(C)c1C)S(=O)(=O)c1ccccc1, CCCNS(=O)(=O)c1cc(-c2nn3c(C)nnc3c3ccccc23)ccc1C, Cc1cc(C)cc(NC(=O)Cc2csc(C)n2)c1, COc1ccc(-c2nc3ccccc3n3c(-c4cccc(C)c4)c4c(=O)n(C)c(=O)n(C)c4c23)cc1OC, COc1cc(NC(=O)C2CCN(C(=O)c3sc4nc[nH]c(=O)c4c3C)CC2)cc(OC)c1OC, CCCCNC(=O)CSc1nc2cc3c(cc2c(=O)n1CCCC(=O)NCCc1ccc(OC)c(OC)c1)OCO3, Cc1ccc(NC(=O)Cn2nc(C(F)(F)F)c3c2CCCC3)cc1C, CCOC(=O)c1[nH]c2c(c1Cc1ccccc1OC)C(=O)CC(c1ccc(OC)cc1)C2 (stereo not given), COc1ccc(C(=O)NCC(c2ccco2)S(=O)(=O)c2ccc(F)cc2)cc1 (stereo not given), Cc1ccc(C)c(N2CCN(C(=O)CN3C(=O)COc4ccc(S(=O)(=O)N5CCCC5)cc43)CC2)c1, Cc1ccc(C)c(Cn2c(=O)n(CCCCC(=O)NCc3ccc4c(c3)OCO4)c(=O)c3ccccc32)c1, CC(C)OCCCNc1ncnc2sc3c(c12)CCCC3, CCCCn1cc(S(=O)(=O)c2cc(C)ccc2C)c(=O)c2cc(F)c(N3CCC(C)CC3)cc21, Cc1ccc(NC(=O)C2CCCN(S(=O)(=O)c3cccc4nsnc34)C2)cc1C (stereo not given), COc1ccc(C2(Nc3cccc(F)c3)C(=O)c3ccccc3C2=O)cc1, COCCNC(=O)C1CCN(C(=O)c2cc3sccc3n2Cc2ccc(Cl)cc2)CC1, Cn1nnc2c(NCc3ccc(Cl)cc3)ncnc21, COc1cccc(CNC(=O)Cc2c(C)c3c(cc(C)c4c(C)c(C)oc43)oc2=O)c1, COc1ccc(NC(=O)Cn2c(=O)n(Cc3ccccc3OC)c(=O)c3cccnc32)cc1Cl
